From the supplement of paper PMC10126150
Values marked as one replicate rest on one cluster of the flow cell; about a third of the high ones do not repeat.

System: ATP
Assay: switch fluorescence ratio, 500 uM ATP over buffer (Cy3 cluster intensity, sum of 5 cycles each) (fold (ratio)); higher = stronger signal-on switching upon ATP binding; sequences stand for … in TCGTCGGCAGCGTCAGATGTGTATAAGAGACAGTTTTTTTTTTTTTTTTTTTTTTTTT…TC
Settings: aptamer strand: ATP DNA aptamer (quencher-CACCTGGGGGAGTATTGCGGAGGAAGG + anchor), 100 nM annealed; ATP concentration: 500 uM; one replicate
Summary of the method: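 Cy3-labelled switching-strand clusters on a modified Illumina MiSeq flow-cell were annealed to 100 nM quencher-labelled ATP aptamer and imaged first in selection buffer, then after 15 min with 500 uM ATP at 22 °C. NaOH stripping and re-annealing separated each of five buffer/ATP cycles, and clusters outside 100-1000 RFU were excluded. The fluorescence ratio sums target-cycle Cy3 intensity over buffer-cycle Cy3 intensity per cluster and averages it per switch-domain sequence.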
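Also: ATP exposure 15 min at 22 °C before imaging.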

Sequence | switch fluorescence ratio
GACCTCGCAG | 1.17
GTGACCCGGC | 1.06
TATTGACAGC | 1.17
GCTTCAAATC | 1.01
AAGGGCAACT | 0.996
AACATTGGAT | 1
GCGGAGGCAT | 1.03
GTATTCGCA | 1.05
TTATTCGCT | 1.02
GAAGGAGATA | 1.07
CGGAGCTGTT | 1.14
GATCGGACTG | 0.984
GAGACACCAC | 1.19
ATACCGTAT | 1.06
TCGTACGAAT | 0.968
TACACAGGTT | 1.1
CAGCATTACT | 6.66
ACAGTCCTTG | 1.01
TCAGCGAAGC | 0.978
GGACGCTTAG | 1.02
TACGTTAAGT | 1.02
TAATGCGCTT | 1.01
TGATATCGGA | 1.04
CCTCACAC | 1.21
GGATTCATGT | 1.02

Sequence | switch fluorescence ratio
GGAAGTGCGG | 0.995
CTAATAGCGG | 0.972
GGACCATGGA | 1.02
TGGCGACATT | 0.97
GTGACTGCCT | 1.09
CTGTTATTAC | 1.18
CACGTCGGCA | 1.01
GCAGCACAGC | 1.14
GGGAAGGACA | 0.971
CTCATCAGGT | 1.16
AATTCAAATA | 1.03
GCGGTGTGGA | 0.987
ATTGTACTT | 1.01
ACATGTTCTT | 1.05
CGAATCTCCA | 1.09
TAATGGATAT | 0.996
AATATCCTAC | 1.01
CATGGGCTGT | 1.01
TAATGACTTT | 1.05
AGTGTATGGA | 0.998
GTGCCTCGGA | 1.01
TGGATACTCC | 1.5
CTGAACGTGT | 1.01
TCTTAGACG | 0.892
TGGGACGTTC | 1.1

Sequence | switch fluorescence ratio
ACGAGGCCTT | 1.04
TCACAGCCCT | 1.05
GACCGTGAAG | 0.956
AGGGCAAGAT | 1.16
CGACTGGCCA | 1.02
TCCACGTATT | 1.23
CTATTGAGGA | 1
AACTTTGAGC | 1.04
AGACAATACG | 1.13
TATCGGGT | 0.985
CTTTTTCGTA | 0.976
GTCATGAAGG | 0.975
AAGATCTGGA | 0.983
TACACGGTCG | 0.964
GGGGCCACAT | 1
GTCCACACAA | 1
TACCTCGTTT | 1
GGTCAGTTTT | 0.99
TGGAGAATG | 1.01
ACTATCCGCA | 1.18
GCCCCGAAAG | 1.03
CAGTGTCTT | 0.983
GAGTCTCCAG | 1
AAGGCTTCAT | 1
AGGGTGGACG | 0.969

Sequence | switch fluorescence ratio
ATATCCGAAG | 1.1
TACCTACGGT | 1.29
GTTTGATTTT | 0.956
ATGCGTGTGG | 0.999
TGTATTACAG | 1.01
GATTTTACG | 1.01
GCTGGTTGGA | 1.01
CTAACCCCTT | 1.15
GACTATATT | 0.989
TCTACAGCTT | 1.08
GCATACCAAG | 1.01
GCAATTAGTG | 1.04
CTGAGGTGAA | 1.03
ATGTAATCGT | 1.02
CGGTGGGGCC | 1.02
TTGCTGCCGT | 0.993
AAGTACCGGG | 1.11
TCTATTATAT | 1.06
TGCGGTTAG | 0.944
TCGTATTTGA | 0.99
TAAAACATAC | 1.23
CTCGACGGGT | 0.99
CTGCTATCTA | 1.05
AGCGTGGGCC | 0.967
CCCGACCTAT | 1.21

Sequence | switch fluorescence ratio
AACACAGGCA | 1.01
GATACACCGG | 1.11
ATACTCGCAA | 5.66
CTTCTCGTCT | 1.08
GATTGAATTA | 0.973
TATTAAAGGA | 1.06
GAGAGCGGGA | 0.939
TAGGTTGTGA | 0.996
CTGTTGGCT | 0.966
CTTCACGCCA | 1.43
CATTTGTTTG | 0.969
TTTCAGAGGC | 0.981
TGGACCAAGC | 0.963
AAACCGCGGG | 0.991
TGATAATCAT | 1.01
TTGGCATATT | 1.07
GCGTCATTTT | 0.968
TAAGATGCTT | 0.973
GGTTCCTGC | 1.01
CAAATGGCAC | 1.05
GGTGAAAAAC | 1.02
GCGATCAAAG | 0.96
TCGTTCCGAT | 1.02
CTATTACAGT | 0.986
ACGATAGTGC | 1

Sequence | switch fluorescence ratio
ACAAGGCAAT | 1.27
TTACCAGTTT | 1.1
AATCATTTA | 0.997
GAAGTAACTA | 1.03
TTCTAGCTAA | 1.03
AGTGATTAGG | 0.931
CACTTATAAT | 1.03
TATTCGAGGA | 1.02
GGTTGCCGAG | 0.952
ATTCGTACC | 0.996
GAAATTGGTA | 0.977
GGGAGGATCA | 1.02
AGTAACGTCC | 1.01
TCTCTGTGTG | 0.955
ATTGAATAGT | 0.992
GGAACGCTTT | 1.05
ATCAGCTGGG | 1.02
GCCGTGACCC | 1.02
GAAATGGTTG | 0.98
ATTCAAATCT | 0.983
CTGCCGCCAG | 1.38
TTTTACGACG | 0.989
TGAGTAGGTT | 0.99
GACATTACGC | 1.28
CGGTAGAAAC | 0.958

Sequence | switch fluorescence ratio
CCCGCCGTAA | 1.93
GTGGGTTACG | 1
AGGCGTTCGC | 1.01
TCCATTGAAA | 0.972
GGCTGTTTCG | 0.946
TGTGACAGAG | 0.974
GCTATTCACT | 1.05
GTGGTGTGTA | 0.953
AGATCCAAGT | 1
AGTGATACGG | 1.07
CGGGAGACTG | 0.9
TTGTCCTTGC | 1.3
GGTATTATTA | 0.977
ATTTCCATGA | 0.967
GCTTTTTCGG | 1
CCCAGGTCTA | 1.8
ATCGGTGCGA | 0.969
CCTTACCTGA | 1.08
TTTGAGTAGC | 0.953
GTTGATCAGG | 0.978
GTCCTGGCGT | 0.948
TGTATGGGTT | 0.99
GCTCACTGGG | 1.04
ACTATAGGCA | 1.03
GCCTTCATGT | 0.965

Sequence | switch fluorescence ratio
AGGGAAGGTC | 1.04
AATTTATGG | 1
AAGAGCTCTG | 1.05
TATATTGGAA | 1.01
CGAGGTAATA | 3.81
GAGTGGAGCT | 0.966
AAATGCATAG | 1.01
CAATACCTGC | 1.11
ATGTGTCCTC | 1.02
ACGCGCGTGC | 1.02
CGATGCTTAG | 1.04
GAGTTATATC | 1.04
CTATGATACC | 1.05
GTCGTAGGTA | 0.989
GGCGGTCGGC | 0.946
CGCGGAGGCG | 0.977
TGCGGGTAGA | 1.03
CAGGATTTGC | 1.02
AGTGGCATAT | 0.981
CAAGGTAGAG | 0.945
TATTGAGGAC | 0.972
TATGGGTTCA | 0.984
TACCAAAGTA | 1.04
CAACAATTTA | 1.03
GGCACCAAAT | 0.999
